Measurements reported in PubChem BioAssay AID743279 (National Center for Advancing Translational Sciences (NCATS), 2014).
The whole screen tested about 360,000 compounds, of which about 17,000 (4.7%) were called active. Inconclusive means that the source gave no clear call. Such entries were picked first, then a sample of the others. No stated cut-off is given here; in the data, active means activity change below about -50%; inconclusive means mostly about -30% to -49%; inactive means weaker than that.

test: qHTS for Inhibitors of Inflammasome Signaling: IL-1-beta AlphaLISA Primary Screen; conditions: THP-1 LPS/ATP IL-1B secretion, 16 h; at 57.5 µM, active compounds read low
Outline: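 THP-1 cells pretreated 1 hr with compounds (up to 57.5 uM final), then stimulated with LPS (250 ng/mL final) plus ATP (1.25 mM final); secreted IL-1B measured by AlphaLISA after 16 hr, decreased signal indicating inhibition.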
On the % scale 0 is the no-effect control and ±100 the full control effect.

| SMILES | activity change |
| --- | --- |
| CCOc1ccc(NC(=S)Nc2ccc(OCC)cc2)cc1 | active: -80.4% |
| Cc1cccc(Nc2ncc3c(n2)CC(c2ccco2)CC3=O)c1 (stereo not given) | inconclusive: -32.9% |
| O=c1oc2ccccc2cc1-c1nnc(NCc2ccco2)s1 | inconclusive: -34.9% |
| CCN(CC)Cc1cc(Oc2ccc(O)c(CN(CC)CC)c2)ccc1O | active: -72.1% |
| CCc1ccccc1NC(=O)NNC(=O)CCc1ccc(OC)cc1 | inactive: -1.04% |
| N#C/C(=C\c1cccnc1)c1nc2ccccc2[nH]1 | inactive: 17.1% |
| O=C(O)c1ccc(/C=N/NC(=O)c2cc3c(ccc4ccccc43)o2)cc1 | inconclusive: -42.2% |
| N=c1n(CC(=O)c2ccc(Br)cc2)c2ccccc2n1Cc1ccccc1 | active: -101% |
| Cc1ccc(NC(=O)C2CSC3(C)CCC(=O)N23)cc1S(=O)(=O)N1CCCCCC1 (stereo not given) | inconclusive: -38.9% |
| N#Cc1nc(COc2ccccc2)oc1N1CCN(Cc2ccccc2)CC1 | inconclusive: -38.9% |
| COc1ccccc1-c1ncn(Cc2cccc(-c3ccccc3)c2)c1-c1ccco1 | inconclusive: -31.2% |
| O=C(CN(c1ccccc1F)S(=O)(=O)c1ccccc1)N1CCCCCC1 | inconclusive: -31.1% |
| COc1ccc(OC)c(/C=C/C(=O)c2ccc3c(c2)OCO3)c1 | active: -97.2% |
| O=C(COc1cccnc1[N+](=O)[O-])NCCc1ccc(Cl)cc1Cl | inconclusive: -30.8% |
| COc1cc2c(cc1OC)CN(c1ncccc1[N+](=O)[O-])CC2 | inconclusive: -34.2% |
| CCCCCCCCN1C(=O)[C@H](CC(=O)NCc2ccc(C)o2)C[C@@]2(C(=O)OC)CCCCC=C12 | active: -53.9% |
| O=C(/C=C/c1ccccc1)c1c[nH]c2ccccc12 | inconclusive: -49.7% |
| Cc1csc(Nc2ccc(Cl)cc2)[n+]1-c1ccc(Cl)cc1 | inconclusive: -36.7% |
| COc1ccc(C2CC(c3cccs3)=NN2C(=O)CN2CCCCC2)cc1 (stereo not given) | active: -65% |
| Cc1cc(C)nc(Sc2nc(C)nc3c2oc2ccccc23)n1 | inconclusive: -40.6% |
| CN(C)/C=C(\C#N)C(=O)Nc1ccc(O)cc1F | inactive: 14.4% |
| COc1ccc(OC)c(C2Nc3c(Cl)ccc(C(=O)O)c3C3C=CCC32)c1 (stereo not given) | active: -57.4% |

| SMILES | activity change |
| --- | --- |
| CC(C)NCCCCOc1ccc(Br)cc1Cl | inactive: -7.06% |
| CCOc1ccc(CN2CCN(Cc3cccn3-c3nccs3)CC2CCO)cc1 (stereo not given) | inconclusive: -45.4% |
| Cc1ccc2nc(SC(C)C(=O)Nc3cccc([N+](=O)[O-])c3)[nH]c2c1 (stereo not given) | active: -73.3% |
| CC1CCCCC12NC(=O)N(CC(=O)NCCc1ccc(S(N)(=O)=O)cc1)C2=O (stereo not given) | inactive: 13% |
| CC(C)Oc1ccc(S(=O)(=O)N2CCCCC2)cc1NC(=O)CN1C(=O)NC(C)(c2ccccc2)C1=O (stereo not given) | inconclusive: -34.6% |
| CC(=O)Nc1ccc(OCC(O)CN2C(C)(C)CC(O)CC2(C)C)cc1 (stereo not given) | inactive: 2.5% |
| COc1ccc([C@H]2CC(=O)C=C(c3ccc(OC)nc3)C2)cc1 | inactive: -9.82% |
| CC(C)OCCCN(C)C1CCN(S(=O)(=O)c2ccc(-c3cc(C(F)(F)F)no3)s2)CC1 | inconclusive: -37.4% |
| CCc1ccccc1NC(=O)N1CCCc2ccccc21 | inactive: 5.96% |
| Cc1ccc(S(=O)(=O)N2CCN(CC(=O)Nc3ccc([N+](=O)[O-])cc3)CC2)cc1C | inconclusive: -36.2% |
| O=C(NNC(=S)NC1CCCCC1)c1ccccc1O | inconclusive: -48.3% |
| O=C1CC(=C(c2ccccc2)c2ccccc2)C(=O)N1CCCCN1CCN(c2cccc(Cl)c2)CC1 | inconclusive: -41.9% |
| O=C(NC(N1CCOCC1)C(Cl)(Cl)Cl)c1ccccc1Cl (stereo not given) | inconclusive: -32.6% |
| S=C(Nc1ccc(Cl)cc1)NC1CC2CCCC(C1)N2C1CC1 (stereo not given) | inconclusive: -41.2% |
| C#CC(=O)N(c1ccc(OC)c(OC)c1)C(C(=O)NC1CCCC1)c1cccs1 (stereo not given) | active: -106% |
| Cc1ccc(Cn2nnc3c(=O)[nH]c(C4CCN(S(=O)(=O)c5ccc(S(=O)(=O)NC6CC6)cc5)CC4)nc32)cc1 | inconclusive: -31.7% |
| CN(C)CCCNC(=O)CC1C[C@H](C(=O)N2CCCCC2)[C@@]2(CCc3ccccc3)c3[nH]c4ccccc4c3CCN2C1=O (stereo not given in full) | inconclusive: -36.3% |
| O=c1c2ccccc2c(C=NCCCN2CCOCC2)c(O)n1Cc1ccc2c(c1)OCO2 | inconclusive: -45.2% |
| Cc1noc(C)c1COc1ccc2ccc(=O)oc2c1 | inconclusive: -34.7% |
| Cc1ccc(-c2cc(C(F)(F)F)n3ncc(C(=O)N4CCN(C)CC4)c3n2)cc1 | inconclusive: -40.5% |
| Cc1ccc(-c2cc(C(=O)N3CCN(C(=O)c4ccco4)CC3)[nH]n2)cc1C | inconclusive: -48.8% |
| Cc1nn(C)cc1C(C(=O)NC1CCCCC1)N(Cc1ccccc1Cl)C(=O)c1cnccn1 (stereo not given) | inactive: 3.92% |

| SMILES | activity change |
| --- | --- |
| COc1ccc(Cc2nnc(SCC(=O)N3CCCC(C)C3)o2)cc1 (stereo not given) | inconclusive: -31.1% |
| O=C(/C=C/c1ccccc1)Nc1cccc(S(=O)(=O)Nc2ccccc2F)c1 | active: -54% |
| CCN1C(=O)[C@H]2[C@@H](c3ccc(-c4ccc(F)cc4)c(OC)c3)N3CCCC[C@@]3(C(=O)OC)[C@H]2C1=O | active: -74% |
| O=C(O)/C=C/C(=O)Nc1ccc(OC(F)(F)Cl)cc1 | inactive: -4.84% |
| Cn1c(=O)[nH]c(=O)c2c1nc(N1CCCCC1)n2CCCSc1nc2ccccc2s1 | inconclusive: -30.2% |
| COc1cc(OC)c(OC)cc1/C=C1\CCC(C2CCCC2)C1=O (stereo not given) | active: -50.7% |
| Cc1cccc(NC(=O)CN2CCc3cc4c(cc3C2)OCCCO4)c1 | inactive: 30.9% |
| c1ccc(-c2cn3nc(-c4ccccc4)c(-c4ccccc4)nc3n2)cc1 | active: -55.3% |
| Cc1ccc(-n2c(C)c(C)c3c(NCCN(C)C)ncnc32)cc1 | inconclusive: -41.4% |
| CC(C)CC(COCc1cccc(Cl)c1)N1CCN(C(=O)c2ccc(C(F)(F)F)cc2)CCC1=O (stereo not given) | inconclusive: -47.4% |
| CCOC(=O)c1ccn(S(=O)(=O)c2ccc(C)cc2)c1-c1ccccc1 | inactive: 40.2% |
| Cn1cc(C2OC(=O)c3ccccc32)c2ccccc21 (stereo not given) | active: -66% |
| O=C(N/N=C\C=C\c1ccc([N+](=O)[O-])o1)c1cccs1 | inconclusive: -43.1% |
| Cc1cccn2c(=O)c3cc(C(=O)NCCN4CCOCC4)c(=N)n(Cc4ccc(F)cc4)c3nc12 | inconclusive: -37.5% |
| COc1ccc(-n2cnc(=S)[nH]c2=S)cc1 | inconclusive: -44.9% |
| Cc1cccc(NS(=O)(=O)c2ccc(C(=O)NCC(c3ccco3)N3CCCCC3)cc2)c1C (stereo not given) | inconclusive: -48.8% |
| Cc1onc(-c2ccccc2Cl)c1C(=O)N1CCN(C/C=C/c2ccccc2)CC1 | active: -51.9% |
| CCN(c1ccccc1)S(=O)(=O)c1ccc(C(=O)Nc2nnc(COC)o2)cc1 | inactive: 7.09% |
| CC1(C(=O)Nc2ccc(F)cc2F)CCN1C(=O)Cc1ccc(Cl)cc1Cl (stereo not given) | inactive: -2.11% |
| COc1cccc(Nc2nc(C(N)CC(C)C)cs2)n1 (stereo not given) | inconclusive: -42.6% |
| Cc1ccc(S(=O)(=O)NCC(=O)N(c2ccccc2)C(C(=O)NCc2ccccc2)c2ccco2)cc1 (stereo not given) | inconclusive: -48.5% |
| CCNc1nc(NCc2ccccc2)nc(SCC(=O)Nc2ccccc2)n1 | active: -50.2% |

| SMILES | activity change |
| --- | --- |
| COc1cccc(N=Cc2ccc(O)cc2O)c1 | inactive: 2.97% |
| O=C(CC1Sc2ccccc2NC1=O)NNc1ccc(Cl)cc1Cl (stereo not given) | active: -57.9% |
| COc1ccc(NC(=O)c2c(-c3c(Cl)cccc3Cl)noc2C)c(OC)c1 | inconclusive: -33.1% |
| Cc1nc(SCC(=O)NCCN2C(=O)CSC2=O)nc(C)c1C | inactive: 3.47% |
| COc1ccccc1NC(=O)Nc1ccc(NC(=O)c2ccccc2O)cc1 | inconclusive: -48% |
| COc1ccc(C(=O)COC(=O)c2c(-c3ccccc3)noc2C)c(OC)c1 | inactive: 21.1% |
| CCOc1ccc(S(=O)(=O)N(C)c2ccc(OCC(=O)N3c4ccc(C)cc4C4CN(C)CCC43)cc2)cc1 (stereo not given) | active: -50.4% |
| O=C(/C=C/c1ccc(F)cc1)NC(=S)Nc1ccccc1 | inconclusive: -38.4% |
| Cc1ccc(CN2CCSc3ccc(C(=O)NCc4ccco4)cc32)cc1 | inconclusive: -43% |
| O=C(CC1SC(=Nc2ccccc2)N(Cc2ccccn2)C1=O)Nc1ccc(Br)cc1 (stereo not given) | inconclusive: -39.4% |
| Cc1cccc(OCC(O)CN2CCN(CCN3C(=O)c4cccc5cccc(c45)C3=O)CC2)c1C (stereo not given) | active: -52.3% |
| CN(Cc1ccccc1)C(=O)c1cc(-c2ccc(Br)cc2)on1 | inconclusive: -36.1% |
| COc1ccc(/C=N/N2CCN(c3ccc(Cl)cc3)CC2)cc1O | inactive: -19% |
| Cc1cccc(C)c1-n1nnnc1C(c1ccnc2ccccc12)N(CCN(C)C)Cc1ccccc1 (stereo not given) | inconclusive: -31.4% |
| Cc1ccccc1Oc1ccc2c(c1)[C@@H]1C[C@H](N(C)C(=O)Nc3cc(Cl)cc(Cl)c3)[C@H]([C@H](C)O)C(=O)N1CC2 | inconclusive: -43.3% |
| Cc1c(C(=O)Nc2ccncc2)sc2nc(-c3ccc(F)cc3)cn12 | inactive: 11.3% |
| CCCNC(=O)N1C[C@H](O)COC[C@H]2O[C@@H](CC(=O)N[C@@H]3CCN(Cc4ccccc4)C3)CC[C@@H]21 | inactive: -19.9% |
| O=C(/C=C/c1ccc(OC(F)F)cc1)Nc1cccc(S(=O)(=O)N2CCOCC2)c1 | active: -65.4% |
| CCOc1ccc(S(=O)(=O)N2CCN(CCNS(=O)(=O)c3ccc(C)cc3)CC2)cc1 | inconclusive: -35.4% |
